Results taken from PubChem BioAssay AID1347073 (National Center for Advancing Translational Sciences (NCATS), 2019).
Hit rate of the full screen: of about 45,000 compounds, about 200 (0.44%) were called active. Roughly 7% stayed inconclusive and do not appear here. Calls follow the shape of the dose curve; as a rule, active = well fitted activation curve with a large enough effect; inconclusive = small, poorly fitted or top-dose-only effect; inactive = no such curve, though single readings can be large or run the other way. The list shows a part of the results.

assay: qHTS of TDP-43 Inhibitors: NCGC Sytravon Library Screen; conditions: yeast TDP-43 toxicity rescue, BacTiter-Glo growth, 24 h; series mostly up to 46.1 µM; growth rescue (activation): at the top concentration; also: nearly all actives have a fitted effect of over 55% in size; as to growth rescue (activation): 0% is about no effect
Summary of the method: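 TDP-43-expressing yeast, pregrown in raffinose, seeded at OD600 0.02 in galactose medium with compound for 24 hr at 30 deg C. Growth read by BacTiter-Glo luminescence, so rescue of toxicity appears as activation.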
Potency is read from the fitted curve at half-maximal effect.

SMILES | growth rescue (activation) | Potency
O=C(NC1CCCc2ccccc21)C(Cc1ccccc1)NS(=O)(=O)c1cccs1 (stereo not drawn) | inactive: 28.7% | –
O=C(N/N=C/c1coc2ccccc2c1=O)c1cn(-c2ccccc2)nc1-c1ccc(F)cc1 | inactive: 6.02% | –
COc1cc(NC(=O)c2cc(S(=O)(=O)N3CCCCC3)ccc2N2CCOCC2)cc(OC)c1OC | inactive: 1.81% | –
CCCN1CNC(=S)N(c2cccc(C)c2)C1 | inactive: -13.7% | –
COCCn1c(SCC(=O)NCc2ccc(F)cc2)nc2ccccc21 | inactive: 14.6% | –
Cc1cc(=O)n2c3ccccc3n(CC(O)CN3CCOCC3)c2c1C#N (stereo not drawn) | inactive: -0.404% | –
Cc1cccc2nc(CSc3nncn3-c3ccccc3)cn12 | inactive: -7.38% | –
CC(NC(=O)COC(=O)/C=C/c1ccc(Cl)cc1)c1ccccc1 (stereo not drawn) | inactive: 10% | –
COc1cc(C(=O)Cc2nc3ccccc3n2C)cc(OC)c1OC | inactive: -18.6% | –
COc1ccc(NS(=O)(=O)c2c(F)cc(F)c(Cl)c2F)cc1S(=O)(=O)N1CCCCC1 | inactive: -24.1% | –
O=C(O)c1ccccc1N/N=C/C1=C(N2CCOCC2)C(=C\c2ccccc2)/CC1 | inactive: 14.2% | –
COc1cc(C(=O)OCc2cc(=O)c(O)co2)ccc1OC(F)F | inactive: 1.93% | –
Cn1c(CNC(=O)c2ccccc2F)nnc1SCC(=O)Nc1nncs1 | inactive: 0.059% | –
Cc1cccc(N2CC(C(=O)Nc3nccs3)CC2=O)c1C (stereo not drawn) | inactive: 8.24% | –
CN(C)c1ccc(C2CC(=O)C=C(Nc3ccccc3N)C2)cc1 (stereo not drawn) | inactive: 0.0136% | –
CCc1nc2ccc(C(=O)NCCC(C)C)cn2c1N(C)Cc1nccs1 | inactive: -13.4% | –
CC(NC(=O)COC(=O)CCc1ccc(S(=O)(=O)N2CCOCC2)cc1)C1CC2CCC1C2 (stereo not drawn) | inactive: 1.99% | –
Nc1cc(=O)[nH]c(=O)n1CCCc1ccccc1 | inactive: 4.74% | –
O=C(Nc1cccc(S(=O)(=O)NC2=NCCCCC2)c1)c1cc(-c2ccccc2)nc2ccccc12 | inactive: -17.4% | –
CCOC(=O)C1(Cc2ccccc2C(F)(F)F)CCN(C2CCN(C(C)C)CC2)CC1 | inactive: -2.09% | –
Cc1ccc(S(=O)(=O)Nc2nc3ccc(N)cc3s2)cc1 | inactive: -3.29% | –
Cc1ccc(N2C(=O)NC(NC(=O)C(C)(C)C)(C(F)(F)F)C2=O)cc1C (stereo not drawn) | inactive: 9.05% | –
Fc1ccccc1-n1ncc2c1ncn1nc(Cc3ccccc3)nc21 | – | active: 11.2 µM
COc1ccc(NS(=O)(=O)c2cc(NC(=O)C3CC3)ccc2N2CCCCC2)cc1 | inactive: 29% | –
CCOC(=O)C1(C)CCN1C(=O)c1cccs1 (stereo not drawn) | inactive: 1.8% | –
COc1ccc(OC)c(S(=O)(=O)Nc2cc(C(=O)O)ccc2N2CC3CC(C2)c2cccc(=O)n2C3)c1 (stereo not drawn) | inactive: 0.409% | –
CN(CC(=O)Nc1ccc(Cl)cc1)C(=O)CCc1ccccc1 | inactive: 31.3% | –

SMILES | growth rescue (activation) | Potency
COc1ccc(C(=O)NCc2csc(C(C)C)n2)cc1OC1CCN(C(C)=O)CC1 | inactive: 2.52% | –
CSCC[C@H](NC(=O)c1cccc(S(=O)(=O)N2CCCCCC2)c1)c1nc2ccccc2[nH]1 | inactive: 10.1% | –
CC(=O)CC(=O)Nc1ncc(C(F)(F)F)cc1Cl | inactive: -28.5% | –
Cc1ccc(NC(=O)CCn2c(=O)[nH]c3ccsc3c2=O)cc1F | inactive: 4.25% | –
Cc1ccc(C2C(C(=O)c3sc(-c4ccccc4)nc3C)=C(O)C(=O)N2CCN(C)C)o1 (stereo not drawn) | inactive: 25.9% | –
CCCS(=O)(=O)N1CCCC(C(=O)NC2CCCC(C)C2C)C1 (stereo not drawn) | inactive: -16.4% | –
CCCOc1ccc(NC(N)=O)cc1OCCC | inactive: 39.6% | –
COc1ccc(CCN(C)CC(O)COc2ccc(C(C)=O)cc2OC)cc1OC (stereo not drawn) | inactive: 13.8% | –
CSCCC(C(=O)NCc1cccs1)N1C(=O)c2ccccc2C1=O (stereo not drawn) | inactive: 29.2% | –
CC(=O)c1c(C)[nH]c(C(=O)COC(=O)C2CC2)c1C | inactive: 23.3% | –
CCOC(=O)c1cccc(NC(=O)Nc2ccc(OCC)cc2)c1 | inactive: 17.2% | –
O=C(CN(Cc1ccccc1F)S(=O)(=O)c1ccc(Cl)cc1)NCC1CCCO1 (stereo not drawn) | inactive: -6.94% | –
CCCC(=O)OCCNc1cc(Sc2nc3ccccc3[nH]2)c2nonc2c1[N+](=O)[O-] | inactive: -27.9% | –
CCS(=O)(=O)NCCNc1ccc([N+](=O)[O-])cc1 | inactive: 1.23% | –
O=C(NCc1ccccc1)C(c1ccc(F)cc1)N(C(=O)c1csnn1)C1CC1 (stereo not drawn) | inactive: -0.377% | –
N#Cc1ccccc1NC(=O)COc1c(Br)cc(Br)c2cccnc12 | inactive: 1.22% | –
CN(C)C(CNC(=O)c1ccc(NC(=O)c2cccs2)cc1)c1ccccc1 (stereo not drawn) | inactive: 9.49% | –
COc1cccc(CNC(=O)c2cnc(-c3ccccn3)nc2C(F)(F)F)c1 | inactive: 34.9% | –
Cc1ccc(Nc2cnn(C34CC5CC(CC(CC(=O)O)(C5)C3)C4)c(=O)c2Cl)c(Cl)c1 | inactive: -10.4% | –
COc1cc(F)ccc1-c1csc(C(C)(O)c2ccc(F)c(F)c2)n1 (stereo not drawn) | inactive: -90.4% | –
Cc1ccc(-c2nnn(CC(=O)N(C)C3CCCCC3)n2)o1 | inactive: -4.49% | –
O=C(CSc1nc2ccccc2n1CC(=O)N1CCCCC1)N1CCCCC1 | inactive: 14.3% | –
N#Cc1cccc(C(=O)Nc2cc(S(=O)(=O)N3CCOCC3)ccc2N2CCCC2)c1 | inactive: -32.1% | –
Cc1cc(NC(=O)Nc2cccc(Cl)c2)n(C(C)(C)C)n1 | inactive: 2.53% | –
CCOc1ncccc1C(=O)OCC(=O)Nc1cc(C(C)(C)C)ccc1OC | inactive: 19.4% | –
CSc1n[nH]c2nc3c(c(=O)n12)C1(CCCCC1)Cc1ccccc1-3 | inactive: -5.73% | –
